Experimental data taken from PMC8999625, “Antiviral Effects of ABMA and DABMA against Influenza Virus In Vitro and In Vivo via Regulating the Endolysosomal Pathway and Autophagy” (International Journal of Molecular Sciences, 2022).

Test system: influenza virus (IAV)
Assay type: cell-based

Structure (SMILES) | virus titers in A549 cells | virus titers in MDCK cells
COc1ccc(Br)cc1CNC12CC3CC(CC(C3)C1)C2 [ABMA, 1-adamantyl (5-bromo-2-methoxybenzyl) amine] | significantly decreased | significantly decreased
COc1ccc(Br)cc1CNC12CC3CC(C)(CC(C)(C3)C1)C2 [DABMA, 1,3-dimethyl-1-adamantyl (5-bromo-2-methoxybenzyl) amine] | significantly decreased | significantly decreased
